This note sets out measurements from ChEMBL document CHEMBL4888484, “Replenishing the malaria drug discovery pipeline: Screening and hit evaluation of the MMV Hit Generation Library 1 (HGL1) against asexual blood stage Plasmodium falciparum ,using a nano luciferase reporter read-out” (2022).

Structures are written as SMILES. Out of some 150,000 compounds screened, about 540 (0.36%) showed an effect of 50% or more. The list shows a part of the results.

A word on the % Inhibition: it is the change of the read-out against control, counted positive when it falls.

The experiment concerns Plasmodium falciparum. The experiment in a line: Primary screen in NF54 nanoGlo assay, in single point, at 2uM, 72h; a lower Z score goes with more inhibition. The note with it: timepoint 72 hour. In kind it is functional, Erythrocyte.
For the molecule `O=C(Nc1nc2n(n1)[C@@H](c1ccc(F)cc1)C[C@@H](c1ccccc1)N2)c1cccnc1`, the “% Inhibition” value is given as -2% and the Z score is listed as 0.24.

In the case of `Cc1cccc(C2(C(=O)N3C[C@H]4CN(C)C[C@H]4C3)CCCC2)c1`, the “% Inhibition” value is -4% and the Z score was determined as 0.45.

Consider `Cc1ncc2n1C[C@@H](C(=O)Nc1cccc(C(F)F)c1)CC2`, for which the “% Inhibition” value was -12% and the Z score is 1.28.

As to `Cc1ccc(CNC(=O)c2sccc2S(=O)(=O)N(C)C)n1C`, the “% Inhibition” value is reported as -16% and the Z score is on record as 1.45.

In the case of `Cc1nccn1C[C@@H](C)CNC(=O)c1ccc2c(=O)n3c(nc2c1)CCCCCC3`, the “% Inhibition” value is 22% and the Z score is -2.81.

Turning to `O=C(CNC1CCCC1)NCc1ccc(Cl)cc1`, the “% Inhibition” value is on record as 0% and the Z score was determined as 0.04.

`COc1cccc(NC(=O)c2ncn(C[C@H](O)c3ccccc3)n2)c1`: the “% Inhibition” value was -12% and the Z score was 1.38.

With `O=C(C[C@@H]1NC(=O)c2ccccc2NC1=O)NCCc1nnc2ccccn12`, the “% Inhibition” value is on record as -6% and the Z score is 0.91.

In the case of `CCc1cc2c(CC(=O)O)ncnc2s1`, the “% Inhibition” value is reported as -12% and the Z score was 1.75.

As for `Cc1ccc(CCC(=O)NCc2cncc(-c3ccoc3)c2)cc1F`, the “% Inhibition” value came to 27% and the Z score is -3.42.

Take `Cc1noc(C2CN(C(=O)c3cc4ccccc4o3)C2)n1`: the “% Inhibition” value was -6% and the Z score is 1.08.

Take `COc1cc2c(cc1OC)[C@@H](NC(=O)c1cnc(C3(C)OCCO3)s1)CCCC2`: the “% Inhibition” value turned out to be 35% and the Z score is given as -6.63.

For `COC(=O)[C@@]1(Cc2c[nH]cn2)N[C@@H](c2cccc(F)c2O)[C@H]2C(=O)N(C)C(=O)[C@H]21`, the “% Inhibition” value was -6% and the Z score was determined as 1.06.

As for `Cc1nccn1[C@@H](C)C(=O)NCC1(CO)CCC1`, the “% Inhibition” value was -7% and the Z score was found to be 0.97.

For the molecule `CC=CCS(=O)(=O)CC(=O)N1C(C)CCCC1C` (stereo unspecified), the “% Inhibition” value is 7% and the Z score is -1.29.

In the case of `CC(C)[C@H](CNC(=O)c1ccc(O)c(F)c1)N(C)C`, the “% Inhibition” value was 6% and the Z score is recorded as -0.87.

As to `CNC(=O)NC(=O)CNc1cc(Cl)cc(Cl)c1`, the “% Inhibition” value stood at 35% and the Z score is -3.92.

Take `COC[C@](C)(NS(=O)(=O)c1c(F)cc(F)cc1OC)C(N)=O`: the “% Inhibition” value is given as -14% and the Z score is reported as 1.87.

`Cc1ccc(Cl)cc1N1CCN(CCNC(=O)Cn2ncc3c4ccccc4n(C)c3c2=O)CC1`: the “% Inhibition” value was 1% and the Z score was -0.19.

Take `O=C(CCOc1ccccc1)NC1CCC(F)(F)CC1`: the “% Inhibition” value is -5% and the Z score was 0.83.

Turning to `CC[C@H](C)N(Cc1c(-c2cccc(C)c2)noc1N1CCOCC1)C(=O)c1cccs1`, the “% Inhibition” value is 1% and the Z score is on record as -0.15.

`CC(C)CNC(=O)c1ccc(N(C)C)c(N)c1`: the “% Inhibition” value is given as 2% and the Z score was -0.27.

On to `Cc1nc(C)n(CCCNC(=O)Cc2cccnc2)n1`, for which the “% Inhibition” value was -16% and the Z score is 2.01.
